{"source": "the supplement of paper PMC3334620", "note": "Whole data set: some 33,000 sequences, median “E-score (-0.5 to 0.5)” near -0.021, cut for the highest 2% near 0.32. Some of the results follow.", "data": [{"biological_target": "T1, Zap1 (UniProt P47043)", "T1 sequence": "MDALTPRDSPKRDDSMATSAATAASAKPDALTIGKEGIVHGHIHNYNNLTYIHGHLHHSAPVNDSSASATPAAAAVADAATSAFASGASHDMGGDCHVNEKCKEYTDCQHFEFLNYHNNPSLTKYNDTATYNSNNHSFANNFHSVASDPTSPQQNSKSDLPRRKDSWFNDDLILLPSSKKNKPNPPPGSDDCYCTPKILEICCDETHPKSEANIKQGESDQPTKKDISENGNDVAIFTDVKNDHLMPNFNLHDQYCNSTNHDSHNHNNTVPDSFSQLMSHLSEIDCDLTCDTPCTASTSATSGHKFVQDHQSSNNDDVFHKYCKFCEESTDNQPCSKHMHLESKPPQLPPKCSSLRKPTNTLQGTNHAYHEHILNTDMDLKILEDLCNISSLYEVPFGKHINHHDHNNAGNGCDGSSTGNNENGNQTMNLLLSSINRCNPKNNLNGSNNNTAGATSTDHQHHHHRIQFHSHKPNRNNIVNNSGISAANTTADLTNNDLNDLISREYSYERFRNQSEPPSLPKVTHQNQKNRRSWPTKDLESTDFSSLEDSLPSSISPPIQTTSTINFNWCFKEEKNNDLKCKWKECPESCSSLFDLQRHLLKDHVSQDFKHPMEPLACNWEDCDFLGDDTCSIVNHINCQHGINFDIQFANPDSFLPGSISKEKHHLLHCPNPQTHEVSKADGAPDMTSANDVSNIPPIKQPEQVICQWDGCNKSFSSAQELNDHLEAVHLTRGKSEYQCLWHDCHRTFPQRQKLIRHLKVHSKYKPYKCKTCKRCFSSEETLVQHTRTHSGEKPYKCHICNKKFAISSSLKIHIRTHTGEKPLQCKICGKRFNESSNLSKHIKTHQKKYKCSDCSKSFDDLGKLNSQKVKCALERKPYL", "assay": "PBM E-score (8-mer binding enrichment) (E-score (-0.5 to 0.5)); higher = stronger / more preferred TF binding; most listed sequences are background and not binding sites", "settings": "protein concentration: 200 nM; construct: GST-full length", "in_short": "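Full-length yeast transcription factors or their DNA-binding domains, GST-tagged and expressed with PURExpress, were applied at about 100-200 nM to universal all-10-mer Agilent arrays. These arrays had been made double-stranded by primer extension on fresh or once-stripped slides. Detection used fluorescent anti-GST, normalisation used masliner, and E-scores for ungapped eight-base words pooled with reverse complements came from the Universal PBM Analysis Suite.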", "values": [{"sequence": "GGAGCGGA", "PBM E-score": -0.221}, {"sequence": "AGGCCTGC", "PBM E-score": -0.253}, {"sequence": "AGTCCTCG", "PBM E-score": -0.272}, {"sequence": "CGGGAACG", "PBM E-score": -0.266}, {"sequence": "ACCCCGAG", "PBM E-score": 0.137}, {"sequence": "AGCAGCGC", "PBM E-score": -0.225}, {"sequence": "GGTGAGTA", "PBM E-score": -0.0185}, {"sequence": "AGTAGCAA", "PBM E-score": -0.124}, {"sequence": "CAAAACCC", "PBM E-score": 0.349}, {"sequence": "AGACCCAA", "PBM E-score": 0.219}, {"sequence": "CGCGCCAC", "PBM E-score": -0.047}, {"sequence": "CACTCATC", "PBM E-score": -0.0653}, {"sequence": "CCAGCGTC", "PBM E-score": -0.259}, {"sequence": "GTGCGAAA", "PBM E-score": 0.0725}, {"sequence": "GTGGAAAA", "PBM E-score": 0.0185}, {"sequence": "AGACCACG", "PBM E-score": -0.0124}, {"sequence": "AAACAAGA", "PBM E-score": 0.146}, {"sequence": "AGGACTTC", "PBM E-score": -0.167}, {"sequence": "CATCTTCG", "PBM E-score": -0.0684}, {"sequence": "GTCACTGA", "PBM E-score": 0.0804}, {"sequence": "ATTTCACA", "PBM E-score": 0.0724}, {"sequence": "ATTCTGAG", "PBM E-score": 0.0121}, {"sequence": "TATTGTCA", "PBM E-score": 0.125}, {"sequence": "ACATGCCT", "PBM E-score": -0.137}, {"sequence": "ACCGCCGA", "PBM E-score": 0.0525}, {"sequence": "CTTACAAA", "PBM E-score": 0.0824}, {"sequence": "GAGATCCA", "PBM E-score": -0.0613}, {"sequence": "GACAATGC", "PBM E-score": -0.0612}, {"sequence": "CGCGATCC", "PBM E-score": -0.0353}, {"sequence": "ACGGTGCG", "PBM E-score": -0.0395}, {"sequence": "GTCAATTA", "PBM E-score": -0.00385}, {"sequence": "ACACGAAA", "PBM E-score": 0.1}, {"sequence": "TAGTTATA", "PBM E-score": 0.22}, {"sequence": "GGCAACAA", "PBM E-score": 0.0441}, {"sequence": "AGAGATTC", "PBM E-score": -0.107}, {"sequence": "AATTCCGA", "PBM E-score": 0.0544}, {"sequence": "AGATCTGG", "PBM E-score": -0.152}, {"sequence": "AACGGAGC", "PBM E-score": -0.327}, {"sequence": "GGCTGCCA", "PBM E-score": -0.00635}, {"sequence": "CCCCGTAC", "PBM E-score": -0.133}, {"sequence": "AAGTCACT", "PBM E-score": -0.203}, {"sequence": "CACACGTC", "PBM E-score": -0.206}, {"sequence": "ACTCCCGG", "PBM E-score": -0.0926}, {"sequence": "CAGATGTC", "PBM E-score": -0.0749}, {"sequence": "GATGGAGA", "PBM E-score": -0.0408}, {"sequence": "CTCAGCTC", "PBM E-score": -0.128}, {"sequence": "CCTCCCTA", "PBM E-score": -0.0703}, {"sequence": "GAGGAAGC", "PBM E-score": -0.301}, {"sequence": "ATGACAGC", "PBM E-score": -0.0168}, {"sequence": "CTCTACCC", "PBM E-score": 0.181}, {"sequence": "CTTTAAGC", "PBM E-score": 0.0702}, {"sequence": "CTCGATCC", "PBM E-score": -0.0316}, {"sequence": "ACGGGGCC", "PBM E-score": -0.0272}, {"sequence": "CGACCAAC", "PBM E-score": -0.0546}, {"sequence": "AATACTAG", "PBM E-score": 0.264}, {"sequence": "GGGAACAC", "PBM E-score": -0.0487}, {"sequence": "AAGATCTC", "PBM E-score": -0.127}, {"sequence": "TCATCAGA", "PBM E-score": -0.0384}, {"sequence": "ACCCATGC", "PBM E-score": 0.15}, {"sequence": "AGACACCG", "PBM E-score": -0.0664}, {"sequence": "GGTGGTAC", "PBM E-score": 0.284}, {"sequence": "TATTTCGA", "PBM E-score": 0.306}, {"sequence": "AACCAACG", "PBM E-score": 0.104}, {"sequence": "CGGATTGC", "PBM E-score": -0.0159}, {"sequence": "CACTTCAC", "PBM E-score": -0.209}, {"sequence": "AGCGCAAC", "PBM E-score": -0.0903}, {"sequence": "CCATTCCG", "PBM E-score": -0.258}, {"sequence": "ATGTTCTG", "PBM E-score": -0.126}, {"sequence": "TCAAACAA", "PBM E-score": 0.0626}, {"sequence": "CTTTGAAC", "PBM E-score": 0.0221}, {"sequence": "AAGTCAAG", "PBM E-score": -0.231}, {"sequence": "CGGTCGAA", "PBM E-score": -0.076}, {"sequence": "GCATTAGC", "PBM E-score": -0.151}, {"sequence": "GGACCTCC", "PBM E-score": -0.134}, {"sequence": "ATTCTCCC", "PBM E-score": -0.16}, {"sequence": "CAGTCTGA", "PBM E-score": -0.0859}, {"sequence": "ACAGAGTA", "PBM E-score": -0.0251}, {"sequence": "ATCGCCTA", "PBM E-score": -0.325}, {"sequence": "GGGTACCA", "PBM E-score": 0.4}, {"sequence": "AATAAGGC", "PBM E-score": -0.214}, {"sequence": "GAGAAATA", "PBM E-score": 0.047}, {"sequence": "ATCCAGAA", "PBM E-score": 0.159}, {"sequence": "ATTAAGAA", "PBM E-score": 0.00585}, {"sequence": "CAGTCAGA", "PBM E-score": -0.0612}, {"sequence": "ACAGAGCT", "PBM E-score": -0.289}, {"sequence": "CCGGGGGC", "PBM E-score": -0.141}]}]}
